Experiments:
Type in all cases: cell-based
[1] = tested on: MOLT-4; assay: Cell proliferation assay MOLT-4; conditions: Homo sapiens, ALL, 72 hours, read-out: IC50 antiproliferative activity
Protocol: (§1) The cells were then incubated with compounds at various concentrations for 72 hours in culture medium supplemented with 0.5% (v/v) fetal bovine serum (FBS). Growth inhibition was accessed by adenosine triphosphate (ATP) content assay using Promega CellTiter-Glo kit. Promega CellTiter-Glo kit is an ATP monitoring system based on firefly luciferase. Briefly, 16 μl of mammalian cell lysis and substrate solution was added to 84 µl of culture medium per well to lyse the cells and stabilize the ATP. The mixture was shaken and incubated for 30 minutes and subsequently the luminescence was measured. IC50 values were calculated using PRISM software (GraphPad Software) with sigmoidal dose-response curve fitting.

[2] = tested on: MDA-MB-231; assay: Cell proliferation assay MDA-MB-231; conditions: Homo sapiens, Breast, 72 hours, read-out: IC50 antiproliferative activity
Protocol: as §1

[3] = tested on: H2122; assay: Cell proliferation assay H2122; conditions: Homo sapiens, NCI-H2122, NSCLC, 72 hours, read-out: IC50 antiproliferative activity
Protocol: as §1

[4] = tested on: MDA-MB-468; assay: Cell proliferation assay MDA-MB-468; conditions: Homo sapiens, Breast, 72 hours, read-out: IC50 antiproliferative activity
Protocol: as §1

[5] = tested on: OPM-2; assay: Cell proliferation assay OPM-2; conditions: Homo sapiens, Multiple Myeloma, 72 hours, read-out: IC50 antiproliferative activity
Protocol: as §1

[6] = tested on: SKBr3; assay: Cell proliferation assay SKBr3; conditions: Homo sapiens, SK-BR-3, Breast, 72 hours, read-out: IC50 antiproliferative activity
Protocol: as §1

[7] = tested on: MV-4-11; assay: Cell proliferation assay MV-4-11; conditions: Homo sapiens, MV4-11, AML, 72 hours, read-out: IC50 antiproliferative activity
Protocol: as §1

[8] = tested on: Su-DHL4; assay: Cell proliferation assay Su-DHL4; conditions: Homo sapiens, SU-DHL-4, B-Cell Lymphoma, 72 hours, read-out: IC50 antiproliferative activity
Protocol: as §1

[9] = tested on: RL; assay: Cell proliferation assay RL; conditions: Homo sapiens, B-Cell Lymphoma, 72 hours, read-out: IC50 antiproliferative activity
Protocol: as §1

[10] = tested on: Calu6; assay: Cell proliferation assay Calu6; conditions: Homo sapiens, Calu-6, NSCLC, 72 hours, read-out: IC50 antiproliferative activity
Protocol: as §1

[11] = tested on: MEG-01; assay: Cell proliferation assay MEG-01; conditions: Homo sapiens, CML, 72 hours, read-out: IC50 antiproliferative activity
Protocol: as §1

[12] = tested on: HL-60; assay: Cell proliferation assay HL-60; conditions: Homo sapiens, AML, 72 hours, read-out: IC50 antiproliferative activity
Protocol: as §1

[13] = tested on: Raji; assay: Cell proliferation assay Raji; conditions: Homo sapiens, B-Cell Lymphoma, 72 hours, read-out: IC50 antiproliferative activity
Protocol: as §1

[14] = tested on: Daudi; assay: Cell proliferation assay Daudi; conditions: Homo sapiens, B-Cell Lymphoma, 72 hours, read-out: IC50 antiproliferative activity
Protocol: as §1

[15] = tested on: SWI-116; assay: Cell proliferation assay SWI-116; conditions: Homo sapiens, Colon, 72 hours, read-out: IC50 antiproliferative activity
Protocol: as §1

[16] = tested on: Pfeiffer; assay: Cell proliferation assay Pfeiffer; conditions: Homo sapiens, B-Cell Lymphoma, 72 hours, read-out: IC50 antiproliferative activity
Protocol: as §1

[17] = tested on: Granta 519; assay: Cell proliferation assay Granta 519; conditions: Homo sapiens, B-Cell Lymphoma, 72 hours, read-out: IC50 antiproliferative activity
Protocol: as §1

[18] = tested on: H460; assay: Cell proliferation assay H460; conditions: Homo sapiens, NCI-H460, NSCLC, 72 hours, read-out: IC50 antiproliferative activity
Protocol: as §1

[19] = tested on: BT474; assay: Cell proliferation assay BT474; conditions: Homo sapiens, BT-474, Breast, 72 hours, read-out: IC50 antiproliferative activity
Protocol: as §1

[20] = tested on: T47D; assay: Cell proliferation assay T47D; conditions: Homo sapiens, Breast, 72 hours, read-out: IC50 antiproliferative activity
Protocol: as §1

[21] = tested on: MiaPaca2; assay: Cell proliferation assay MiaPaca2; conditions: Homo sapiens, MIA PaCa-2, Pancreas, 72 hours, read-out: IC50 antiproliferative activity
Protocol: as §1

[22] = tested on: HuT78; assay: Cell proliferation assay HuT78; conditions: Homo sapiens, T-Cell Lymphoma, 72 hours, read-out: IC50 antiproliferative activity
Protocol: as §1

[23] = tested on: UACC-893; assay: Cell proliferation assay UACC-893; conditions: Homo sapiens, Breast, 72 hours, read-out: IC50 antiproliferative activity
Protocol: as §1

[24] = tested on: HCC1806; assay: Cell proliferation assay HCC1806; conditions: Homo sapiens, Breast, 72 hours, read-out: IC50 antiproliferative activity
Protocol: as §1

[25] = tested on: ZR-75-1; assay: Cell proliferation assay ZR-75-1; conditions: Homo sapiens, Breast, 72 hours, read-out: IC50 antiproliferative activity
Protocol: as §1

[26] = tested on: H292; assay: Cell proliferation assay H292; conditions: Homo sapiens, NCI-H292, NSCLC, 72 hours, read-out: IC50 antiproliferative activity
Protocol: as §1

[27] = tested on: RPMI-8226; assay: Cell proliferation assay RPMI-8226; conditions: Homo sapiens, Multiple Myeloma, 72 hours, read-out: IC50 antiproliferative activity
Protocol: as §1

[28] = tested on: MJ; assay: Cell proliferation assay MJ; conditions: Homo sapiens, T-Cell Lymphoma, 72 hours, read-out: IC50 antiproliferative activity
Protocol: as §1

[29] = tested on: MCF-7; assay: Cell proliferation assay MCF-7; conditions: Homo sapiens, MCF7, Breast, 72 hours, read-out: IC50 antiproliferative activity
Protocol: as §1

[30] = tested on: MDA-MB-453; assay: Cell proliferation assay MDA-MB-453; conditions: Homo sapiens, Breast, 72 hours, read-out: IC50 antiproliferative activity
Protocol: as §1

[31] = tested on: SUP-B15; assay: Cell proliferation assay SUP-B15; conditions: Homo sapiens, ALL, 72 hours, read-out: IC50 antiproliferative activity
Protocol: as §1

[32] = tested on: PANC-1; assay: Cell proliferation assay PANC-1; conditions: Homo sapiens, Pancreas, 72 hours, read-out: IC50 antiproliferative activity
Protocol: as §1

[33] = tested on: MDA-MB-361; assay: Cell proliferation assay MDA-MB-361; conditions: Homo sapiens, Breast, 72 hours, read-out: IC50 antiproliferative activity
Protocol: as §1

[34] = tested on: T-84; assay: Cell proliferation assay T-84; conditions: Homo sapiens, T84, Colon, 72 hours, read-out: IC50 antiproliferative activity
Protocol: as §1

[35] = tested on: SW620; assay: Cell proliferation assay SW620; conditions: Homo sapiens, SW-620, Colon, 72 hours, read-out: IC50 antiproliferative activity
Protocol: as §1

[36] = tested on: HCT116; assay: Cell proliferation assay HCT116; conditions: Homo sapiens, HCT-116, Colon, 72 hours, read-out: IC50 antiproliferative activity
Protocol: as §1

[37] = tested on: CFPAC-1; assay: Cell proliferation assay CFPAC-1; conditions: Homo sapiens, Pancreas, 72 hours, read-out: IC50 antiproliferative activity
Protocol: as §1

[38] = tested on: THP-1; assay: Cell proliferation assay THP-1; conditions: Homo sapiens, AML, 72 hours, read-out: IC50 antiproliferative activity
Protocol: as §1

[39] = tested on: HCC1500; assay: Cell proliferation assay HCC1500; conditions: Homo sapiens, Breast, 72 hours, read-out: IC50 antiproliferative activity
Protocol: as §1

[40] = tested on: U937; assay: Cell proliferation assay U937; conditions: Homo sapiens, U-937, AML, 72 hours, read-out: IC50 antiproliferative activity
Protocol: as §1

[41] = tested on: H358; assay: Cell proliferation assay H358; conditions: Homo sapiens, NCI-H358, NSCLC, 72 hours, read-out: IC50 antiproliferative activity
Protocol: as §1

[42] = tested on: CaPan2; assay: Cell proliferation assay CaPan2; conditions: Homo sapiens, Capan-2, Pancreas, 72 hours, read-out: IC50 antiproliferative activity
Protocol: as §1

[43] = tested on: DOHH2; assay: Cell proliferation assay DOHH2; conditions: Homo sapiens, DOHH-2, B-Cell Lymphoma, 72 hours, read-out: IC50 antiproliferative activity
Protocol: as §1

[44] = tested on: HH; assay: Cell proliferation assay HH; conditions: Homo sapiens, T-Cell Lymphoma, 72 hours, read-out: IC50 antiproliferative activity
Protocol: as §1

[45] = tested on: WiDr; assay: Cell proliferation assay WiDr; conditions: Homo sapiens, Colon, 72 hours, read-out: IC50 antiproliferative activity
Protocol: as §1

[46] = tested on: K562; assay: Cell proliferation assay K562; conditions: Homo sapiens, CML, 72 hours, read-out: IC50 antiproliferative activity
Protocol: as §1

[47] = tested on: SW403; assay: Cell proliferation assay SW403; conditions: Homo sapiens, SW-403, Colon, 72 hours, read-out: IC50 antiproliferative activity
Protocol: as §1

[48] = tested on: ARH77; assay: Cell proliferation assay ARH77; conditions: Homo sapiens, ARH-77, Multiple Myeloma, 72 hours, read-out: IC50 antiproliferative activity
Protocol: as §1

[49] = tested on: SW1990; assay: Cell proliferation assay SW1990; conditions: Homo sapiens, Pancreas, 72 hours, read-out: IC50 antiproliferative activity
Protocol: as §1

[50] = tested on: A549; assay: Cell proliferation assay A549; conditions: Homo sapiens, NSCLC, 72 hours, read-out: IC50 antiproliferative activity
Protocol: as §1

Measured: IC50

O=C(CCCCCCC(=O)Nc1ccccc1)NO [SAHA, Suberoylanilide hydroxamic acid]
0.1 to 1 µM: [1] | [5] | [7] | [9] | [12] | [28] | [30] | [31] | [40] | [43] | [44]
0.01 to 0.1 µM: [22]
> 10 µM: [18] | [38]
1 to 10 µM: all other assays above

Reference: US11654136B2, “Phosphoinositide 3-kinase inhibitor with a zinc binding moiety” (Curis, Inc., priority 2011, dated 2023)
